Measurements reported in ChEMBL document CHEMBL1201862, “PubChem BioAssay data set” (2004).
The list shows a part of the results, in another mix than the full data. Only a part of the results of these assays is listed, not drawn at random.

target: Ataxin-2 (Homo sapiens) (UniProt Q99700); assay: qHTS for Inhibitors of ATXN expression.; type: functional
UniProt Q99700, sequence (Q99700 whole entry): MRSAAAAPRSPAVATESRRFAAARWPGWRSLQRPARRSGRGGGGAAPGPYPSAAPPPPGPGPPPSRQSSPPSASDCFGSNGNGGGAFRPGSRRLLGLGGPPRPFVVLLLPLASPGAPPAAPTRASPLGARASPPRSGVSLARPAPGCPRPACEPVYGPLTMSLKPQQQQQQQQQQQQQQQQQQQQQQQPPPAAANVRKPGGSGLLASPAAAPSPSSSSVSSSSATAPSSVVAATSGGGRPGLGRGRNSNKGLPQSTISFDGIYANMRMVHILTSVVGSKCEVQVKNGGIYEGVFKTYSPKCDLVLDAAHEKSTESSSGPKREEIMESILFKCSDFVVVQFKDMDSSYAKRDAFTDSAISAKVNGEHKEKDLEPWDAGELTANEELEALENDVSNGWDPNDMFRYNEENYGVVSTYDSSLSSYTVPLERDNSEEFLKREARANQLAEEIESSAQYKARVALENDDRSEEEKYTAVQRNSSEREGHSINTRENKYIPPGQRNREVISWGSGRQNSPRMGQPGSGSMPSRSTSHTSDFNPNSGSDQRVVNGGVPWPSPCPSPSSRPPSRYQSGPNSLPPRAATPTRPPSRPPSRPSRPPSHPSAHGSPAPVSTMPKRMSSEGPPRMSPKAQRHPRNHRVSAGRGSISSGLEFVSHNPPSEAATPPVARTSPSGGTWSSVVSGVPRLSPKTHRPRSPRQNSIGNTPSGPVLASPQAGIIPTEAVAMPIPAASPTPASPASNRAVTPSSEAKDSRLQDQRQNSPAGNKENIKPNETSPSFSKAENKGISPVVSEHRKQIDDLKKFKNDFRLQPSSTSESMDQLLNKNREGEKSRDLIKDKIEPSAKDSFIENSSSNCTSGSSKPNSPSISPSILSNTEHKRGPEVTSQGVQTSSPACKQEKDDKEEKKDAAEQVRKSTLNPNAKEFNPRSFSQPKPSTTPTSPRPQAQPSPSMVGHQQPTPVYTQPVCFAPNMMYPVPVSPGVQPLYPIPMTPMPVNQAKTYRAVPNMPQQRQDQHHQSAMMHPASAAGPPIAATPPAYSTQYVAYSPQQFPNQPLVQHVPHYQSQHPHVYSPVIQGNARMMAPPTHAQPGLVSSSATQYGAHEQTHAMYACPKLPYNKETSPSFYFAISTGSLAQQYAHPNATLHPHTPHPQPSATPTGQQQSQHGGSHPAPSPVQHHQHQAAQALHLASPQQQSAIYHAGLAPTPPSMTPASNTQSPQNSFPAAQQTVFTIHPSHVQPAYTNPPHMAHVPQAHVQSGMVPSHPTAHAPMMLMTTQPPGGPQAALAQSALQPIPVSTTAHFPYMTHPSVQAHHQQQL

SMILES | Potency
CNC1CCc2cc(OC)c(OC)c(OC)c2-c2ccc(SC)c(=O)cc21 (stereo unspecified) | active: 3.8 nM
